Measurements taken from PubChem BioAssay AID1159614 (National Center for Advancing Translational Sciences (NCATS), 2016).
The campaign covered roughly 45,000 compounds. About 65 (0.1%) were called active. The call rests on the fitted dose curve; in most records, active means well fitted activation curve with a large enough effect; inconclusive means small, poorly fitted or top-dose-only effect; inactive means no such curve, though single readings can be large or run the other way. The list shows a part of the results.

Molecular target: Galactocerebrosidase (Homo sapiens) (UniProt P54803)
Assay: A Novel Cell-Based Assay to Identify Small Molecules for B -Galactocerebrosidase; further: 0% is about no effect; nearly all actives have a fitted effect of over 65% in size
Settings: 145M-Twi-hGALC-G270D cells, HMU-beta-Gal fluorescence, 48 h; series mostly up to 57.5 µM; activation: at the top concentration
In short: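 qHTS, 1536-well; 145M-Twi-hGALC-G270D cells (WT line also made) in DMEM/F12 + 10% FBS; compound incubation on live cells; HMU-β-gal 0.1 mM final, pH 5.2, NaTC; carbonate stop; fluorescence increase = enhanced residual activity.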

Chain of UniProt P54803 (P54803 whole entry, looked up): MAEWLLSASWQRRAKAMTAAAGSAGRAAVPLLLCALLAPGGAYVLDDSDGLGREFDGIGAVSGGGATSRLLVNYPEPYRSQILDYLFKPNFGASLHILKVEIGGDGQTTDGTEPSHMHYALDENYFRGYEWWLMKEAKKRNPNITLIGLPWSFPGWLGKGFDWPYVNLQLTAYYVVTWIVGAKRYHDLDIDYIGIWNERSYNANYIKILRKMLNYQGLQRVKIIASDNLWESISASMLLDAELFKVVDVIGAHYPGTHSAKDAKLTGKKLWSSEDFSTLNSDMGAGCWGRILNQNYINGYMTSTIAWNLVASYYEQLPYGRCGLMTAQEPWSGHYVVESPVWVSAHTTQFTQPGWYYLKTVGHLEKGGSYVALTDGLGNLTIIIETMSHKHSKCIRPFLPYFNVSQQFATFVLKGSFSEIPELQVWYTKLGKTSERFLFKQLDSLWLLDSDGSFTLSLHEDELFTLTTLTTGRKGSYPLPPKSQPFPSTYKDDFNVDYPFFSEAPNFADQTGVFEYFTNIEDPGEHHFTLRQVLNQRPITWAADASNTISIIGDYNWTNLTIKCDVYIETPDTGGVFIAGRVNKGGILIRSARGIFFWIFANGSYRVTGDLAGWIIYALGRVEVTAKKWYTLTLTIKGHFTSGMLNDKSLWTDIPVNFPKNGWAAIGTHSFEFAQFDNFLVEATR

activation, inactive:
COc1ccc(-c2cc(C(C)=O)c(C)n2CCC(=O)NCc2ccc(C)cc2)cc1 7.42%
COc1cccc(CNC(=O)C2CCN(C(=O)c3cnn(-c4ccccc4)c3-n3cccc3)CC2)c1 -5.02%
Cc1ccc(NC(=O)Nc2cn(CC(C)C)c(=O)c3ccccc23)cc1N(C)C -49.4%
CCOC(=O)c1cc(S(=O)(=O)N2CCN(c3cccc(C)c3C)CC2)[nH]n1 -5.85%
CNC(=O)c1c(NC(=O)c2nc(SCc3ccc(C)cc3)ncc2Cl)sc2c1CCCC2 -9.81%
CCCS(=O)(=O)c1ncc(Cl)c(C(=O)Nc2c(C(=O)Nc3ccccc3)oc3ccccc23)n1 -25.3%
CCN(c1ccccc1C)S(=O)(=O)c1nnc(NC(=O)c2ccco2)s1 -3.68%
Cc1ccc(-n2ncc(C(=O)NC3CCCCC3)c2C2CCN(C(=O)OC(C)(C)C)CC2)cc1 -8.45%
COc1ccccc1OCC(=O)N1CCC(c2nc3ccccc3o2)CC1 -18.7%
CN(CC(=O)NCc1ccc(F)cc1)S(=O)(=O)c1ccc2[nH]c3c(c2c1)CCCC3 -26.1%
COc1ccc(CNc2nc3c(-c4cccc(F)c4)nnn3c3ccccc23)cc1 -6.06%
Cc1ccc(NC(=O)c2c(C)oc3c2C2=NCCN2C=N3)cc1F -10.2%
COc1ccc(-c2c(C)nn3c(C(F)(F)F)cc(-c4ccccc4)nc23)cc1OC -8.49%
COc1ccc(N(C)C(=O)c2cc3c(s2)-c2c(C)cccc2OC3)c(OC)c1 -5.35%
Cc1c(Cl)cccc1NC(c1ccc(F)cc1)c1nnc(-c2ccccc2)o1 (stereo not given) 12.3%
CCc1ccc(-n2c(=O)c3sc4ccccc4c3n(CC(=O)NCc3ccccc3)c2=O)cc1 -5.42%
O=C(c1ccc2c(c1)N(Cc1cccc(F)c1)C(=O)c1ccccc1S2)N1CCC2(CC1)OCCO2 -10.7%
O=C(Nc1cccnc1)c1cc(-c2ccc(Cl)cc2)on1 -19.8%
O=C(Cn1cccc1C(=O)c1ccccc1)NCc1ccccc1Cl -9.7%
Cc1cccn2c(=O)cc(CSc3nnc(NC(=O)COc4ccccc4)s3)nc12 -32.6%
COC(=O)c1cc2sccc2n1CC(=O)Nc1ccc(OC)c(OC)c1 -25.9%
Cc1ccc(S(=O)(=O)NCc2nc3nc(C)cc(C)n3n2)cc1 19.8%
Cc1cccc(C)c1OCC(=O)NC(Cc1c[nH]c2ccccc12)C(=O)O (stereo not given) -7.6%
Cc1ccc(C)c(CN2CCCN(CC(=O)Nc3ccc(C)c(C)c3)S2(=O)=O)c1 -6.7%
COc1cc(C)nc(-n2nc(C)cc2OC)n1 -3.2%
Cc1ccc(-n2c(=O)c3c4c(sc3n(CC(=O)Nc3cccc(Cl)c3)c2=O)CCCCC4)cc1C -4.28%
CS(=O)(=O)Nc1ccc([N+](=O)[O-])cc1Oc1ccccc1 -7.39%
CCN(CC)CCCNC(=O)c1ccc(Cn2c(=O)[nH]c3cc(OC)c(OC)cc3c2=O)cc1 -10.1%
COc1cc(Cl)c(C)cc1NC(=O)CCc1nc2cccnc2n1Cc1cccs1 -35.9%
CCn1cc(C(=O)O)c(=O)c2cc(F)c(N3CCNC(C)C3)c(F)c21 (stereo not given) -19.1%
CCOC(=O)c1c(S(=O)(=O)N2CCC(C(=O)N3CCN(c4ccccc4F)CC3)CC2)c(C)n(C)c1C -11.7%
Cn1cc(C(=O)NCc2ccccc2Cl)c(=O)c2cc(S(=O)(=O)N3CCCCCC3)ccc21 -11.5%
Cc1cccc(Cn2c(SCc3ccc(C(=O)NC4CCCC4)cc3)nc3cccnc32)c1 -8.7%
COc1ccc(NC(=O)C2CCN(S(=O)(=O)c3c(C)noc3/C=C/c3cccs3)CC2)cc1 -19.6%
Cc1nn(-c2ccc(Cl)cc2)c2nc(-c3cccnc3)cc(C(F)(F)F)c12 -14.3%
COc1ccc(CCNC(=O)c2cn(C)c3ccc(S(=O)(=O)N4CCOCC4)cc3c2=O)cc1OC -16.6%
CC(C)N(Cc1ccccc1)C(=O)Cn1ncc2c3ccccc3n(Cc3ccccc3)c2c1=O -12.5%
CCOC(=O)c1ccc(NC(=O)CCCn2c(=O)c3cccn3c3cccnc32)cc1 -22%
CCn1cc(S(=O)(=O)c2cccc(Cl)c2)c(=O)c2cc(F)c(N3CCN(C)CC3)cc21 -7.82%
CN(Cc1ccccc1)C(=O)CCS(=O)(=O)c1ccc2c(c1)oc(=O)n2C -16.5%
COC(=O)c1ccccc1NC(=O)c1ccc(-c2nc(CSc3ccc(C)cc3)c(C)o2)cc1 1.22%
COc1ccc(OC)c(CNC(=O)c2ccc(NC(=O)c3nsc4ccccc34)cc2)c1 -6.32%
Cc1ccccc1OCCCCn1c(CCNC(=O)C(C)(C)C)nc2ccccc21 -21%
COc1ccc(OC)c(S(=O)(=O)NCC(c2ccco2)S(=O)(=O)c2ccccc2)c1 (stereo not given) -18.7%
COc1cccc(-c2noc(CCCC(=O)NCc3ccco3)n2)c1 -24.7%
O=C(CSc1ccccc1)NCc1ccc2c(c1)CCN2C(=O)c1ccccc1 -19.4%
COc1ccc(S(=O)(=O)NC(C)C)cc1-n1cnnn1 -22.5%
Cc1ccccc1Nc1nnc(-c2ccc(C)c(S(=O)(=O)N3CCN(C)CC3)c2)c2ccccc12 -16.2%
O=C(Cc1csc2ccccc12)NCc1ccc(F)cc1 -13.8%
O=C(Nc1ccc(OC(F)(F)F)cc1)C1CCCN(S(=O)(=O)c2ccc(Br)s2)C1 (stereo not given) -10.7%
COc1ccc(C(C(=O)Nc2ccc(C(C)C)cc2)N(C)C(=O)Cc2cccs2)cc1 (stereo not given) -11.4%
COc1ccc(Br)cc1CNC(=O)CN1C(=O)CCCc2ccccc21 -15.5%
C#CC(C)(CC)NC(=O)Cn1nnc(-c2ccc(OCc3ccccc3Cl)cc2)n1 (stereo not given) -2.23%
CC(C)(C)c1ccc(C(=O)Nc2nc3nc(-c4ccccc4)cc(=O)n3[nH]2)cc1 -21.7%
Cc1ccc(NC(=O)Cn2c(SCc3cccc(F)c3)nc3ccncc32)c(C)c1 -18.2%
COc1ccc(C(=O)NCC(c2cccnc2)N2CCN(c3ccccc3OC)CC2)cc1 (stereo not given) -8.3%
COc1cccc(NC(c2nnc(-c3ccccc3)o2)c2ccc(F)cc2Cl)c1 (stereo not given) -9.42%
CCc1ccc(C(=O)c2cn(CC(=O)Nc3ccc4c(c3)OCCO4)c3ccc(CC)cc3c2=O)cc1 -12%
Cc1ccc2oc(C(=O)Nc3nc(-c4ccc(F)cc4)ns3)c(C)c2c1 -9.9%
Cc1ccccc1OCC(=O)Nc1ccc(C(=O)OCc2cc(=O)n3c(C)csc3n2)cc1 2.05%
COCCCNC(=O)C1CCCN(c2ncnc3onc(C)c23)C1 (stereo not given) -16.4%
COc1ccc(CCNC(=O)c2ccc3c(Cl)c4c(nc3c2)CCCC4)cc1OC -17.7%
CCCN(CCC)C(=O)c1c[nH]c2ccc(S(=O)(=O)N(C)c3ccc(OCC)cc3)cc2c1=O -7.97%
Cc1cccc(N2CCN(C(=O)c3cc4c(=O)[nH]c5ccc(C)cc5c4s3)CC2C)c1 (stereo not given) 1.05%
COc1ccc(CNC(=O)CSCc2cnn(-c3ccccc3)c2-n2cccc2)cc1OC 3.87%
CC(=O)N1CCN(c2nc3c(F)cc(F)cc3s2)CC1 -23.1%
COc1ccc(Cn2c(CNC(=O)Cc3cccc([N+](=O)[O-])c3)nc3cccnc32)cc1 -9.58%
COc1cccc(NC(=O)CSC2=Nc3ccccc3C3=NC(CC(=O)NCc4cccs4)C(=O)N23)c1 (stereo not given) -4.54%
COc1ccc(C2c3c(oc4cc(C)cc(C)c4c3=O)C(=O)N2Cc2ccco2)cc1OC (stereo not given) -9.47%
CCOC(=O)Cn1c(=O)n(CC2CCCO2)c2nc(-c3ccccc3Cl)nc(C(N)=O)c21 (stereo not given) -13.8%
Cc1cc(C)cc(NC(=O)c2sc3nc[nH]c(=O)c3c2C)c1 -2.55%
CCOc1ccccc1NC(=O)C1=C(C)Nc2ncnn2C1c1sccc1C (stereo not given) -12.4%
Cc1ccc(CNC(=O)c2c(-c3ccc(Br)cc3)noc2C)o1 -5.92%
O=C(CCCn1c(=O)c2cccn2c2cccnc21)Nc1ccccc1C(F)(F)F -4.05%
CCOC(=O)c1ccc(CN(Cc2ccc(OC)cc2)S(=O)(=O)c2cccc(C(F)(F)F)c2)cc1 3.16%
CC1=C(C(=O)Nc2ccccc2C)C(c2cccs2)n2nc(SCc3cc(C)ccc3C)nc2N1 (stereo not given) -14.5%
O=c1c(N2CCc3ccccc3C2)csc2ccc(F)cc12 -8.06%
COc1ccccc1C(=O)Nc1c(C(=O)c2ccccc2)oc2ccccc12 -7.54%
CCOc1ccc(N(CC)C(=O)c2noc3c2COc2ccc(C)cc2-3)cc1 4.58%
Cc1c(C(=O)NCc2ccccc2)oc2ccc(S(=O)(=O)N3CCC(C)CC3)cc12 -6.3%
O=C(NCCc1ccc(Cl)cc1)C(=O)NCC(c1ccco1)S(=O)(=O)c1ccccc1 (stereo not given) -2.5%
Cc1ccc(NC(=O)C(=O)NCC(c2cccnc2)N2CCN(C)CC2)cc1 (stereo not given) -15.3%
CCn1c(CN2CCCCC2)nc2cc(NC(=O)COc3ccccc3C(C)(C)C)ccc21 -25.4%
Cc1coc2c1c(C)cc1oc(=O)c(CC(=O)NCCc3ccc(Cl)cc3)c(C)c12 -10.4%
COc1ccc(CCNC(=O)c2c(O)nc3c(C)cccn3c2=O)cc1OC -4.23%
CCn1c2c(c(=O)n3ncc(C(=O)Nc4ccc(C(=O)OC)cc4)c13)CN(Cc1ccc(OC)cc1)CC2 -8.76%
COc1ccc(C)cc1NC(=O)c1ccc2nc(Cc3ccccc3)oc2c1 -18%
CCOc1ccc(CC(=O)NCCS(=O)(=O)N2CCN(c3ccc(OC)cc3)CC2)cc1 -1.28%
CCn1c2ccccc2c2cc(CN3CCN(Cc4ccc(OC)c(OC)c4)CC3)ccc21 -10.7%
CCCn1c(/C=C/c2ccccc2)nc2ccccc21 -6.81%
COc1ccc(NC(=O)c2c(N)c(C(=O)c3ccc(OC)cc3)n3ccccc23)cc1 -7.55%
Cc1c(C(=O)NCCc2ccc(Cl)cc2)cccc1-n1cnc2cccnc21 -14.3%
COc1ccc(N2CCN(C(=O)CSc3nc4ccccc4nc3Cc3ccc(Cl)cc3)CC2)cc1 -0.707%
Cc1ccc(-n2c3c(c(=O)[nH]c2=O)C(NS(=O)(=O)c2ccc(Cl)cc2)(C(F)(F)F)C(=O)N3)cc1 (stereo not given) -7.93%
Fc1cccc(NCc2ccccc2-c2nnc(-c3ccccc3Cl)o2)c1 -12.8%
